# From the supplement of paper PMC9174493
# The other results are listed elsewhere or left out. Single values of this set are uncertain. Values with irradiation are relative to irradiated vehicle.
# What was measured:
# A549-Dual [1] = experiment: NF-kB reporter (SEAP) activity, viability-corrected, relative to vehicle (fold change vs vehicle); higher = more activation of STING-IRF / NF-kB immune response reporter
# A549-Dual [2] = experiment: ISRE reporter (Lucia luciferase) activity, viability-corrected, relative to vehicle (fold change vs vehicle); higher = more activation of STING-IRF / NF-kB immune response reporter
# 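Throughout, for NF-kB reporter (SEAP) activity, viability-corrected, relative to vehicle: viability correction based on the alamar blue assay, with concentrations leaving 10% survival or less dropped.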
smiles,measurement,setting,value
COc1cccc2c1C(=O)c1c(O)c3c(c(O)c1C2=O)CC(O)(C(C)=O)CC3OC1CC(N)C(O)C(C)O1.Cl (stereo unspecified) [Daunorubicin HCl],NF-kB reporter,"A549-Dual [1]; 0.1 µM, irradiation: 8 Gy/4 fr",0.973
same,NF-kB reporter,"A549-Dual [1]; 0.1 µM, irradiation: none",1.71
same,NF-kB reporter,"A549-Dual [1]; 0.3 µM, irradiation: 8 Gy/4 fr",1.21
same,NF-kB reporter,"A549-Dual [1]; 0.3 µM, irradiation: none",2.48
same,NF-kB reporter,"A549-Dual [1]; 1 µM, irradiation: 8 Gy/4 fr",1.63
same,NF-kB reporter,"A549-Dual [1]; 1 µM, irradiation: none",3.36
same,NF-kB reporter,"A549-Dual [1]; 3 µM, irradiation: 8 Gy/4 fr",6.63
same,NF-kB reporter,"A549-Dual [1]; 10 µM, irradiation: 8 Gy/4 fr",5.51
same,ISRE reporter,"A549-Dual [2]; 0.1 µM, irradiation: 8 Gy/4 fr",0.643
same,ISRE reporter,"A549-Dual [2]; 0.1 µM, irradiation: none",6.11
same,ISRE reporter,"A549-Dual [2]; 0.3 µM, irradiation: 8 Gy/4 fr",0.957
same,ISRE reporter,"A549-Dual [2]; 0.3 µM, irradiation: none",5.64
same,ISRE reporter,"A549-Dual [2]; 1 µM, irradiation: 8 Gy/4 fr",1.04
same,ISRE reporter,"A549-Dual [2]; 1 µM, irradiation: none",7.99
same,ISRE reporter,"A549-Dual [2]; 3 µM, irradiation: 8 Gy/4 fr",0.674
same,ISRE reporter,"A549-Dual [2]; 10 µM, irradiation: 8 Gy/4 fr",0.842
CC12CCC(=O)C=C1C=CC1C2CCC2(C)C1CCC21CCC(=O)O1 (stereo unspecified) [Canrenone],NF-kB reporter,"A549-Dual [1]; 10 µM, irradiation: 8 Gy/4 fr",0.578
same,NF-kB reporter,"A549-Dual [1]; 10 µM, irradiation: none",0.681
same,ISRE reporter,"A549-Dual [2]; 10 µM, irradiation: 8 Gy/4 fr",0.65
same,ISRE reporter,"A549-Dual [2]; 10 µM, irradiation: none",0.636
COS(=O)(=O)[O-].C[N+]1(C)CCC(=C(c2ccccc2)c2ccccc2)CC1 [Diphemanil Methylsulfate],NF-kB reporter,"A549-Dual [1]; 10 µM, irradiation: 8 Gy/4 fr",0.777
same,NF-kB reporter,"A549-Dual [1]; 10 µM, irradiation: none",0.854
same,ISRE reporter,"A549-Dual [2]; 10 µM, irradiation: 8 Gy/4 fr",0.935
same,ISRE reporter,"A549-Dual [2]; 10 µM, irradiation: none",1.08
C[n+]1cc2c3c(ccc2c2ccc4cc5c(cc4c21)OCO5)OCO3 [Sanguinarine],NF-kB reporter,"A549-Dual [1]; 0.1 µM, irradiation: 8 Gy/4 fr",1.07
same,NF-kB reporter,"A549-Dual [1]; 0.1 µM, irradiation: none",1.36
same,NF-kB reporter,"A549-Dual [1]; 0.3 µM, irradiation: 8 Gy/4 fr",1.03
same,NF-kB reporter,"A549-Dual [1]; 0.3 µM, irradiation: none",1.17
same,NF-kB reporter,"A549-Dual [1]; 1 µM, irradiation: 8 Gy/4 fr",1.23
same,NF-kB reporter,"A549-Dual [1]; 1 µM, irradiation: none",0.997
same,NF-kB reporter,"A549-Dual [1]; 3 µM, irradiation: 8 Gy/4 fr",0.97
same,NF-kB reporter,"A549-Dual [1]; 3 µM, irradiation: none",1.57
same,ISRE reporter,"A549-Dual [2]; 0.1 µM, irradiation: 8 Gy/4 fr",0.866
same,ISRE reporter,"A549-Dual [2]; 0.1 µM, irradiation: none",0.971
same,ISRE reporter,"A549-Dual [2]; 0.3 µM, irradiation: 8 Gy/4 fr",0.885
same,ISRE reporter,"A549-Dual [2]; 0.3 µM, irradiation: none",0.815
same,ISRE reporter,"A549-Dual [2]; 1 µM, irradiation: 8 Gy/4 fr",0.879
same,ISRE reporter,"A549-Dual [2]; 1 µM, irradiation: none",0.834
same,ISRE reporter,"A549-Dual [2]; 3 µM, irradiation: 8 Gy/4 fr",0.809
same,ISRE reporter,"A549-Dual [2]; 3 µM, irradiation: none",1.27
Cl.OC(CCCN1CCCCC1)(c1ccccc1)c1ccccc1 [Diphenidol HCl],NF-kB reporter,"A549-Dual [1]; 10 µM, irradiation: 8 Gy/4 fr",0.784
same,NF-kB reporter,"A549-Dual [1]; 10 µM, irradiation: none",1.3
same,ISRE reporter,"A549-Dual [2]; 10 µM, irradiation: 8 Gy/4 fr",0.84
same,ISRE reporter,"A549-Dual [2]; 10 µM, irradiation: none",0.823
Cl.Nc1ccc(N=Nc2ccccc2)c(N)n1 [Phenazopyridine HCl],NF-kB reporter,"A549-Dual [1]; 10 µM, irradiation: 8 Gy/4 fr",0.84
same,NF-kB reporter,"A549-Dual [1]; 10 µM, irradiation: none",0.958
same,ISRE reporter,"A549-Dual [2]; 10 µM, irradiation: 8 Gy/4 fr",0.319
same,ISRE reporter,"A549-Dual [2]; 10 µM, irradiation: none",0.482
CC1=CC(=O)c2ccccc2C1=O [Menadione],NF-kB reporter,"A549-Dual [1]; 10 µM, irradiation: 8 Gy/4 fr",1.01
same,NF-kB reporter,"A549-Dual [1]; 10 µM, irradiation: none",1.51
same,ISRE reporter,"A549-Dual [2]; 10 µM, irradiation: 8 Gy/4 fr",0.396
same,ISRE reporter,"A549-Dual [2]; 10 µM, irradiation: none",0.427
C[S+](CCC(N)C(=O)[O-])CC1OC(n2cnc3c(N)ncnc32)C(O)C1O (stereo unspecified) [Ademetionine],NF-kB reporter,"A549-Dual [1]; 10 µM, irradiation: 8 Gy/4 fr",0.568
same,NF-kB reporter,"A549-Dual [1]; 10 µM, irradiation: none",0.613
same,ISRE reporter,"A549-Dual [2]; 10 µM, irradiation: 8 Gy/4 fr",0.612
same,ISRE reporter,"A549-Dual [2]; 10 µM, irradiation: none",0.726
